Data taken from the supplement of paper PMC11417369.
Some of the results follow.

system: PF3D7_0420300 AP2 domain 1 (GST-tagged); assay: gcPBM binding intensity (ln(normalized median fluorescence intensity)); higher = stronger DNA binding
Outline: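 The highest Masliner-normalised natural-log median intensity across replicate spots of either probe orientation is reported as binding intensity. GST-tagged P. falciparum DNA-binding domains expressed in E. coli were applied for 1 h to an Agilent 4 × 180k array of primer-extended double-stranded 36-bp intergenic genomic probes plus negative controls, and bound protein was detected with Alexa488 anti-GST antibody and scanned at 488 nm.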

Sequence	gcPBM binding intensity (ln)
TTTTAAAACTACATTGGTACACAATAAAAAAAAAAA [XGTACX_site2793]	9.14
TCATATATATTATACACACACATATATAAATATATA [CACACA_site967]	9.7
AAAAAAAAAAAAAAAGCACACATATAAATATGAATA [CACACA_site8391]	9.18
AAATTTAAATAATGTGCGCATCTTAATATATATAAG [GTGCAC_site9890]	9.19
AAATAATATTGAAAAGTGCATATTTTTGTTGATATA	9.1
TCTTATAACAAAAAAAAATAAAAAATAAAACTATAT [GTGCAC_negctrl_site11]	9.28
CATATAAATAGACACACACACACATATAAATAAATA [CACACA_site7156]	10.3
TTTTCTATTTAATTGGTGCACTGATATATACACATA [GTGCAC_site9533]	9.26
AGGTTAAAAATAAATACACACATTTGATGTCTGTAT [CACACA_site6596]	9.49
TTATGTTATATATACACACACAAAAGAAAAAAAAAA [CACACA_site2987]	9.7
ATATAACATATTAATAATATATTTATAATATGTTTA [GTGCAC_negctrl_site168]	8.95
TTTTGAGAATATATGGGTACAAATAAATAAAAATAT [XGTACX_site1933]	9.26
AAAAAACATACATACACACACATAAATATATATATT [CACACA_site2699]	10.1
ATATATATATAAAGGAGTACATACATTAAAAAAAAA [XGTACX_site1095]	9.42
TCTTATTTAAAAATAGCACACATTATATATATATAT [CACACA_site8916]	9.15
TCCTTGTTTGGTTTTTTTTTTTCTTCTTTTTTTTTT [CACACA_negctrl_site1355]	9.78
ACACATACACATTAGGTGCACATAATTCAATATTAC [GTGCAC_site9862]	9.49
TTAAATGTTATATATTGTACATATAATATATGTATT [XGTACX_site1492]	9.23
TATGAAACGATATATGTGCACATGAGGGAATATAGA [GTGCAC_site9611]	9.57
TATAAATCAATATGTACACACATATACATGTTGAAT [CACACA_site7460]	9.33
TAATAAAAAAAGTGCACACACATAATATATATATAT [CACACA_site3340]	9.65
TTAGCAACTATTACTACACACATTTTTATATAATTT [CACACA_site1372]	9.64

Sequence	gcPBM binding intensity (ln)
CATATAATATATCAATGTACATATATATTTTATAAA [XGTACX_site5901]	9.11
ATTGTCAAAACACGCACACACATATACATAATAACA [CACACA_site1742]	9.85
ATTATATACATATATATTGTATATACTATACATATG [XGTACX_negctrl_site545]	9.29
ATATATACCTATAACACACACATATTTATATTTATA [CACACA_site7257]	9.78
TCATAGCTAGGATAACGTACAGAAAAGTGAAAAATT [XGTACX_site3322]	9.48
ACACATGTATTTGGTGCATGTTGTTAAAAAAATATT [TGCATGCA_site795]	9.1
TTTTTTTTTTGTTGTTGTACTCTTATATTTTTATAT [XGTACX_site6178]	9.7
ATTCTAGTAATATATGTATATTTATATATGTATGTG [XGTACX_negctrl_site419]	9.36
GATCTATTGAGTGATACATGCAGGAAAATTAAAAAC [TGCATGCA_site729]	9.24
TATGTATGTATGTATGTATGCATGTCTAACACCTAA [TGCATGCA_site360]	8.98
TTTTTTTTTTTATGCTCACACATTAATTTTTATACA [CACACA_site4527]	9.38
AAAAAGAAAAAAGAAAGTACAAATATACACATTTTT [XGTACX_site3343]	9.35
TTTTTATTATAAGGTCGTACAATTGTAATTATTGTA [XGTACX_site1413]	9.23
ATAAAAGATTTATACATACACACATATTATATTCAC [CACACA_site3714]	9.67
TTTTTTTTTTTTTTTTAACACACATATATATATTTT [CACACA_site8585]	9.02
ATATATATGTATATAACATGCAACATTTAATAATAA [TGCATGCA_site1018]	9.32
ATATAAATAAAGAAATATATATATATATATATATAT [GTGCAC_negctrl_site668]	9.09
AACGCTTATTAGTTGTTGTATATGTGTTCACATATT [CACACA_negctrl_site379]	9.37
AAAAAACACGGACACACACACATATACATACATACA [CACACA_site5470]	10.1
AATATAAATAATGTTAAACACACATACCGATATATA [CACACA_site8869]	9.66
ATTTATAGAGCTATATGTACATATATATATATTATT [XGTACX_site3704]	9.27
AAAAGGTGGAAAAATGCATGCAGGCTATTCTATATA [TGCATGCA_site1034]	9.28

Sequence	gcPBM binding intensity (ln)
TTCCACCAATATATATGTACTTATAATATATATATA [XGTACX_site8700]	9.24
AATTACATATAATACTGTACGCTAATAAGAAAAAAA [XGTACX_site7413]	9.27
TAATTATGTATGAACTGTACAGGTTATTTTATTTTA [XGTACX_site5204]	9.14
TAAAATTTAAATTATACACACTTAAGTAACATCATC [CACACA_site4450]	9.45
AAAAAATACCTCTATAGTACATATATATAATATTTA [XGTACX_site7222]	9.2
AAAAAAAATTTATTTGCATGCAAAAAAAAAAAAAAA [TGCATGCA_site67]	8.84
ACAATATAGATTAAAAGTACAAATAGTAAATTATAT [XGTACX_site3165]	9.52
AAAACAATATACTGTAGTACTGATGATATATATATA [XGTACX_site7798]	9.33
ATAAAAAAAAATAGCACACATAAATATATTATATAT [CACACA_site767]	9.63
AATCATCTCATAAAAATTAATTAGTGTATGTCTTTT [TGCATGCA_negctrl_site416]	9.23
CTACTTATAAATAGAACACACATAAGTGTATTTGTA [CACACA_site3759]	9.23
ATTTAAATACAAAATTGTACTTTTCTATATTTAACA [XGTACX_site6146]	9.14
AAATTTTAAATAGTATGTACGTATGAAATATATATG [XGTACX_site7511]	9.36
ACCCATTTAACAAAATGTACATTATTATAATTACTT [XGTACX_site7105]	9.35
AAAATTTTACAGAAGGTGCGTATATTTTCCTGCTTA [GTGCAC_site9643]	9.26
TTTGGAAAAAAATTATTTAAACGATATGAATTGATG [XGTACX_negctrl_site506]	8.89
TACAATATTTTGAGACGTACATATATACATTTACAT [XGTACX_site5880]	9.24
AAATTAAAATAAAAATGTACATATAAAGACACAACT [XGTACX_site3132]	9.86
CTTACCAAAAGACACACACACACAAGATATATAAAT [CACACA_site6964]	10.2
TGAACTTACTTGGACATACACACATATATATATATA [CACACA_site2977]	9.65
TGTAAGTCGTTATAAGCACACACATAAATAAAAATA [CACACA_site8448]	9.59
TATATATATATACCAACACACATACAGATATATATA [CACACA_site5060]	9.7

Sequence	gcPBM binding intensity (ln)
TTTATATACAAAAATGCACACGAAAAGTAATATATA [CACACA_site9387]	9.56
AAGCCCATTATTAAATGTACAAAATTTTATAAACTA [XGTACX_site7800]	9.06
CAGTGCCAAATTAGCACACACATATATACATGAATT [CACACA_site2814]	9.5
GTATATATGTATATATGTACATATATATAATATATT [XGTACX_site56]	9.16
TAAAACATATATACAAGTACACAAAGGATATATATA [XGTACX_site3710]	9.55
TATAGGTATTTATATACACACATATTCTTTTTACAC [CACACA_site6686]	9.63
TTTTGTTATGGTTTGATGCACTTATATATAAATATT [GTGCAC_site9705]	9.6
CACAGTGATATAAAAACACACATGAATTATAATTTC [CACACA_site1667]	9.43
ATGTAGATAAAACGTGTGCACATGTTTTTTGTTATT	9.86
ATATATATATATATATGTACTTATTACCAATGTTAG [XGTACX_site1896]	9.23
AATATATGATAATTTTTTTTTTTTTTTTTTAAATAT [CACACA_negctrl_site452]	8.89
AAAAAATGTTAAAAAAGTACTTTCTTTATTTAATAA [XGTACX_site2908]	8.96
AACAATTGTTAAAGGTGTACCATATGTATATAAGAA [XGTACX_site5723]	9.39
AGACGTAATAATTGTTGTACATAAAAAAATAAGAAA [XGTACX_site7594]	9.23
ATGATATTATAAAAAAGTACATATGTATATAATTAT [XGTACX_site7652]	9.38
TGTGTTAGCAAAAAAGTGCACAGGGAAAAAAAAATA [GTGCAC_site9397]	9.25
CATTTAGTTCATACTATGCACACTACGTATATTTTT [CACACA_site2694]	9.63
TGTATAAAAAACTAATGTACAAATGACAAGATATCT [XGTACX_site4600]	9.34
AATGCACAGCTCTTAGGCAAAAGTGGGTATTTACAC [GTGCAC_negctrl_site579]	9.17
ACAATTCATTAGAATTGTACAAAAGGATGAAGCGAA [XGTACX_site5242]	9.4
ATTTAATACAAATACACACACAAATATGTACCTATA [CACACA_site7718]	9.86
ATTTTTTTTTTTTAATTTGATATTTGCGTTTATATA [CACACA_negctrl_site1305]	9.36
